One may read the IC50 as the midpoint of a concentration-inhibition curve.

SMILES strings stand for the structures. Like-named read-outs stand apart in the source and are kept apart here.

Among the data in patent US11160803B2, “Phthalazinone derivatives” (KUDOS PHARMACEUTICALS LIMITED, priority 2003, dated 2021) are IC50 values, retold here.

The target in the experiment is Mammalian PARP, isolated from Hela cell nuclear extract (Homo sapiens, UniProt P09874). The experiment is described as follows: PARP inhibition assay (FlashPlate, 3H-NAD incorporation), IC50. The format is biochemical. The method, then: In order to assess the inhibitory action of the compounds, the following assay was used to determine IC50 values (Dillon, et al., JBS., 8(3), 347-352 (2003)).
The total assay volume per well was 40 μl.
After 10 minutes incubation at 30° C. the reactions were initiated by the addition of a 10 μl reaction mixture, containing NAD (5 μM), ^3H-NAD and 30 mer double stranded DNA-oligos. Designated positive and negative reaction wells were done in combination with compound wells (unknowns) in order to calculate % enzyme activities. The plates were then shaken for 2 minutes and incubated at 30° C. for 45 minutes.
Following the incubation, the reactions were quenched by the addition of 50 μl 30% acetic acid to each well. The plates were then shaken for 1 hour at room temperature.
The plates were transferred to a TopCount NXT (TRADE MARK) (Packard, UK) for scintillation counting. Values recorded are counts per minute (cpm) following a 30 second counting of each well.
The % enzyme activity for each compound is then calculated using the following equation: […]
Such IC50 values are used as comparative values to identify increased compound potencies.

Where [1] appears, read: PARP from Hela cell nuclear extract, NAD 5 μM, 30° C.

As for `CCCCN1CCN(C(=O)c2cc(Cc3n[nH]c(=O)c4ccccc34)ccc2F)CC1` [compound 251], under setting [1], the IC50 is less than 10 nM. As to `CC(=O)N1CCN(C(=O)c2cc(Cc3n[nH]c(=O)c4ccccc34)ccc2F)CC1` [compound 264], under setting [1], the IC50 was less than 10 nM. Take `O=C(c1cccc(Cc2n[nH]c(=O)c3ccccc23)c1)N1CCCN(C(=S)Nc2cccc(C(F)(F)F)c2)CC1` [compound 345]: the IC50 under setting [1] was less than 10 nM.

As for `CCCCOC(=O)c1ccc(NC(=O)N2CCN(C(=O)c3cccc(Cc4n[nH]c(=O)c5ccccc45)c3)CC2)cc1` [compound 177], the IC50 under setting [1] is less than 10 nM. On to `COc1ccc2[nH]cc(CN3CCCN(C(=O)c4cccc(Cc5n[nH]c(=O)c6ccccc56)c4)CC3)c2c1` [compound 303], for which, under setting [1], the IC50 was less than 10 nM. On to `Cc1ccccc1NC(=S)N1CCCN(C(=O)c2cccc(Cc3n[nH]c(=O)c4ccccc34)c2)CC1` [compound 349], for which the IC50 under setting [1] is less than 10 nM.

Consider `O=C(NCc1ccc(Cl)cc1Cl)N1CCN(C(=O)c2cccc(Cc3n[nH]c(=O)c4ccccc34)c2)CC1` [compound 168], for which the IC50 under setting [1] is less than 10 nM. As to `O=C(c1cc(Cc2n[nH]c(=O)c3ccccc23)ccc1F)N1CCN(c2cccc(Cl)c2)CC1` [compound 234], the IC50 under setting [1] was less than 10 nM.

On to `O=C(c1cccc(Cc2n[nH]c(=O)c3ccccc23)c1)N1CCN(S(=O)(=O)c2ccccc2Cl)CC1` [compound 61], for which, under setting [1], the IC50 is less than 10 nM. Turning to `CCCCCN1CCN(C(=O)c2cc(Cc3n[nH]c(=O)c4ccccc34)ccc2F)CC1` [compound 255], the IC50 under setting [1] was less than 10 nM. Regarding `CCC(CC)CN1CCN(C(=O)c2cc(Cc3n[nH]c(=O)c4ccccc34)ccc2F)CC1` [compound 254], the IC50 under setting [1] was less than 10 nM. In the case of `CCCCOC(=O)c1ccc(NC(=O)N2CCCN(C(=O)c3cccc(Cc4n[nH]c(=O)c5ccccc45)c3)CC2)cc1` [compound 333], the IC50 under setting [1] was less than 10 nM.

For `O=C(c1cc(Cc2n[nH]c(=O)c3ccccc23)ccc1F)N1CCN(CC2CCCCC2)CC1` [compound 259], the IC50 under setting [1] was less than 10 nM.

Consider `O=C(c1cccc(Cc2n[nH]c(=O)c3ccccc23)c1)N1CCN(C(=O)c2ccccc2Cl)CC1` [compound 143], for which, under setting [1], the IC50 was less than 10 nM. For the compound `O=C(c1cccc(Cc2n[nH]c(=O)c3ccccc23)c1)N1CCN(C(=O)C2COc3ccccc3O2)CC1` (centres unmarked) [compound 28], the IC50 under setting [1] was less than 10 nM. Same read-out and setting: the figure for `O=C(c1cccc(Cc2n[nH]c(=O)c3ccccc23)c1)N1CCN(C(=O)c2ccc(F)cc2Cl)CC1` [compound 68] is less than 10 nM; for `CCCN1CCN(C(=O)c2cc(Cc3n[nH]c(=O)c4ccccc34)ccc2F)CC1` [compound 256] it is less than 10 nM. As to `CN1CCC(C(=O)N2CCN(C(=O)c3cc(Cc4n[nH]c(=O)c5ccccc45)ccc3F)CC2)CC1` [compound 269], under setting [1], the IC50 was less than 10 nM. As to `O=C(Cc1ccc(Cl)cc1)N1CCN(C(=O)c2cccc(Cc3n[nH]c(=O)c4ccccc34)c2)CC1` [compound 101], the IC50 under setting [1] is less than 10 nM.

In the case of `COc1ccc(NC(=S)N2CCCN(C(=O)c3cccc(Cc4n[nH]c(=O)c5ccccc45)c3)CC2)cc1` [compound 343], the IC50 under setting [1] was less than 10 nM. Still for that read-out and setting: for `O=C(Cc1ccc(C(F)(F)F)cc1)N1CCCN(C(=O)c2cccc(Cc3n[nH]c(=O)c4ccccc34)c2)CC1` [compound 327] the value was less than 10 nM; for `O=C(c1cccc(Cc2n[nH]c(=O)c3ccccc23)c1)N1CCC(c2nc(-c3ccc(Cl)cc3)no2)CC1` [compound 17], less than 10 nM; for `O=C(CN1CCN(C(=O)c2cc(Cc3n[nH]c(=O)c4ccccc34)ccc2F)CC1)N1CCOCC1` [compound 239], less than 10 nM.

Consider `O=C(c1cccc(Cc2n[nH]c(=O)c3ccccc23)c1)N1CCN(C(=S)NCCc2ccccc2)CC1` [compound 180], for which the IC50 under setting [1] is less than 10 nM. `O=C(c1cc(Cc2n[nH]c(=O)c3ccccc23)ccc1F)N1CCNCC1` [compound 2, 4-[4-Fluoro-3-(piperazine-1-carbonyl)benzyl]-2H-phthalazin-1-one]: the IC50 under setting [1] is less than 10 nM.

In the case of `O=C(c1cccc(Cc2n[nH]c(=O)c3ccccc23)c1)N1CCN(c2nc(-c3ccccc3)ns2)CC1` [compound 27], the IC50 under setting [1] was less than 10 nM. As for `O=C(c1cc(Cc2n[nH]c(=O)c3ccccc23)ccc1F)N1CCCN(CC2CC2)CC1` [compound 247], the IC50 is less than 10 nM. For `O=C(c1cccc(Cc2n[nH]c(=O)c3ccccc23)c1)N1CCC(C(=O)N2CCN(c3ccc(F)cc3)CC2)CC1` [compound 357], the IC50 under setting [1] was less than 10 nM. For `O=C(c1cccc(Cc2n[nH]c(=O)c3ccccc23)c1)N1CCCN(C(=S)Nc2ccccc2)CC1` [compound 341], the 50% inhibitory concentration (IC50) under setting [1] was less than 10 nM. `CC(=O)c1cccc(NC(=S)N2CCCN(C(=O)c3cccc(Cc4n[nH]c(=O)c5ccccc45)c3)CC2)c1` [compound 339]: under setting [1], the IC50 is less than 10 nM. As to `O=C(c1cc(Cc2n[nH]c(=O)c3ccccc23)ccc1F)N1CCN(C(=O)C2CCNCC2)CC1` [compound 272], the IC50 under setting [1] is less than 10 nM. In the case of `CCOc1ccc(NC(=O)N2CCCN(C(=O)c3cccc(Cc4n[nH]c(=O)c5ccccc45)c3)CC2)cc1` [compound 332], under setting [1], the IC50 is less than 10 nM.

Consider `O=C(NCc1ccc(Cl)c(Cl)c1)N1CCN(C(=O)c2cccc(Cc3n[nH]c(=O)c4ccccc34)c2)CC1` [compound 172], for which the IC50 under setting [1] is less than 10 nM. Take `COc1ccc(C(=O)C2CCN(C(=O)c3cccc(Cc4n[nH]c(=O)c5ccccc45)c3)CC2)cc1` [compound 18]: the IC50 under setting [1] was less than 10 nM. On the same count and under the same terms, the figure for `CN(C)c1ccc(NC(=S)N2CCN(C(=O)c3cccc(Cc4n[nH]c(=O)c5ccccc45)c3)CC2)cc1` [compound 187] is less than 10 nM.

Turning to `O=C(CCc1ccccc1)N1CCCN(C(=O)c2cccc(Cc3n[nH]c(=O)c4ccccc34)c2)CC1` [compound 322], the IC50 under setting [1] was less than 10 nM.

As for `CCCCCC(C)C(=O)N1CCN(C(=O)c2cccc(Cc3n[nH]c(=O)c4ccccc34)c2)CC1` (centres unmarked) [compound 97], the IC50 under setting [1] was less than 10 nM. For `O=C(c1ccccc1)C1CCN(C(=O)c2cccc(Cc3n[nH]c(=O)c4ccccc34)c2)CC1` [compound 19], the IC50 under setting [1] was less than 10 nM.

For the compound `O=C(c1cc(Cc2n[nH]c(=O)c3ccccc23)ccc1F)N1CCN(c2cccnc2)CC1` [compound 240], the IC50 under setting [1] was less than 10 nM.

`N#Cc1cccnc1N1CCCN(C(=O)c2cccc(Cc3n[nH]c(=O)c4ccccc34)c2)CC1` [compound 10]: under setting [1], the IC50 is less than 10 nM. With `Cn1c(CCCC(=O)N2CCN(C(=O)c3cccc(Cc4n[nH]c(=O)c5ccccc45)c3)CC2)cc2ccccc2c1=O` [compound 90], the IC50 under setting [1] was less than 10 nM. `O=C(c1cccc(Cc2n[nH]c(=O)c3ccccc23)c1)N1CCCNCC1` [compound 3, 4-[3-([1,4]diazepane-1-carbonyl)benzyl]-2H-phthalazin-1-one]: the IC50 under setting [1] is less than 10 nM.

Consider `COC(=O)c1ccc(NC(=S)N2CCCN(C(=O)c3cccc(Cc4n[nH]c(=O)c5ccccc45)c3)CC2)cc1` [compound 336], for which, under setting [1], the IC50 was less than 10 nM. In the case of `CSc1ccc(C(=O)N2CCCN(C(=O)c3cccc(Cc4n[nH]c(=O)c5ccccc45)c3)CC2)cc1` [compound 323], the IC50 under setting [1] is less than 10 nM. The same measure, in the same setting: the figure for `O=C(c1cccc(Cc2n[nH]c(=O)c3ccccc23)c1)N1CCN(C(=O)C2CCCCC2)CC1` [compound 30] is less than 10 nM; for `O=C(c1cc(Cc2n[nH]c(=O)c3ccccc23)ccc1F)N1CCN(c2ncccn2)CC1` [compound 225] it is less than 10 nM; for `CC(C)N1CCN(C(=O)c2cc(Cc3n[nH]c(=O)c4ccccc34)ccc2F)CC1` [compound 263] it is less than 10 nM.

On to `Cc1ccc(NC(=S)N2CCCN(C(=O)c3cccc(Cc4n[nH]c(=O)c5ccccc45)c3)CC2)cc1` [compound 348], for which, under setting [1], the IC50 was less than 10 nM. With `Cc1cc(C)cc(NC(=O)N2CCCN(C(=O)c3cccc(Cc4n[nH]c(=O)c5ccccc45)c3)CC2)c1` [compound 331], the IC50 under setting [1] was less than 10 nM. `O=C(c1ccno1)N1CCN(C(=O)c2cc(Cc3n[nH]c(=O)c4ccccc34)ccc2F)CC1` [compound 265]: the IC50 under setting [1] is less than 10 nM.

On to `CCCc1cnc(N2CCCN(C(=O)c3cccc(Cc4n[nH]c(=O)c5ccccc45)c3)CC2)nc1` [compound 9], for which the 50% inhibitory concentration (IC50) under setting [1] was less than 10 nM.

As to `O=C(CCN1CCOCC1)N1CCN(C(=O)c2cc(Cc3n[nH]c(=O)c4ccccc34)ccc2F)CC1` [compound 271], the IC50 under setting [1] is less than 10 nM.

For `Cc1cccc(N2CCN(C(=O)C3CCN(C(=O)c4cccc(Cc5n[nH]c(=O)c6ccccc56)c4)CC3)CC2)c1C` [compound 356], under setting [1], the IC50 is less than 10 nM. On to `O=C(c1cccc(Cc2n[nH]c(=O)c3ccccc23)c1)N1CCN(C(=O)c2ccc(Cl)c(Cl)c2)CC1` [compound 144], for which the IC50 under setting [1] is less than 10 nM. With `CC(C)(C)CN1CCN(C(=O)c2cc(Cc3n[nH]c(=O)c4ccccc34)ccc2F)CC1` [compound 258], the IC50 under setting [1] was less than 10 nM.

Consider `O=C(c1cc(Cc2n[nH]c(=O)c3ccccc23)ccc1F)N1CCN(Cc2nccs2)CC1` [compound 262], for which the IC50 under setting [1] is less than 10 nM. As to `Cc1cccc(NC(=S)N2CCCN(C(=O)c3cccc(Cc4n[nH]c(=O)c5ccccc45)c3)CC2)c1` [compound 334], the IC50 under setting [1] is less than 10 nM.

Turning to `O=C(c1cccc(Cc2n[nH]c(=O)c3ccccc23)c1)N1CCCN(c2nc3ccc(Cl)cc3s2)CC1` [compound 5, 4-{3-[4-(6-Chlorobenzothiazol-2-yl)-1,4-diazepan-1-ylcarbonyl]benzyl}-1(2H)-phthalazinone], under setting [1], the IC50 is less than 10 nM.

Turning to `CC/C=C(\C)C(=O)N1CCCN(C(=O)c2cccc(Cc3n[nH]c(=O)c4ccccc34)c2)CC1` [compound 325], the IC50 under setting [1] is less than 10 nM.
